The values that follow come from patent publication US20250351832A1, “PHYTOCHEMICALS AS BIOPESTICIDES AND BIOSTIMULANTS” (KAY BEE BIO ORGANICS PVT. LTD., priority 2024, published 2025).

Experiment [1] relates to Xanthomonas axanopodis pv. punicae. In words: In vitro well diffusion technique (Ex. 21). The following applies: nutrient agar, dose 1 ml/gm/lit., after three days. For orientation: Agar diffusion results depend on both activity and mobility in agar.
For experiment [2] the test system is unchanged. The following applies: pomegranate plants, after 7 days, dose 1 ml/gm/lit.

For the compound `CC12CCC(CC1)C(C)(C)O2` [1,8 cineole], the “Zone of Inhibition (mm)” value in experiment [1] is listed as 8.25 mm. Further, the “% Disease reduction over Control” value in experiment [2] came to 53.91%.

As to `CC1=CCC2CC1C2(C)C` (stereo not drawn) [Alpha-pinene], in experiment [1], the “Zone of Inhibition (mm)” value was 7.50 mm. For the same compound, the “% Disease reduction over Control” value in experiment [2] turned out to be 50.43%.

For the compound `CC=Cc1cc(OC)c(OC)cc1OC` [B-Asarone], the “Zone of Inhibition (mm)” value in experiment [1] came to 7.50 mm.

Consider `C=C1C2CCC(C2)C1(C)C` (stereo not drawn) [Camphene, camphene], for which, in experiment [1], the “Zone of Inhibition (mm)” value is reported as 9.00 mm. For the same compound, the “% Disease reduction over Control” value in experiment [2] was 53.04%.

In the case of `CC12CCC(CC1=O)C2(C)C` (stereo not drawn) [Camphor], the “Zone of Inhibition (mm)” value in experiment [1] worked out at 10.00 mm. For the same compound, the “% Disease reduction over Control” value in experiment [2] was 60.87%.

`COc1cc(CNC(=O)CCCC/C=C/C(C)C)ccc1O` [Capsaicin]: the “Zone of Inhibition (mm)” value in experiment [1] worked out at 12.25 mm. Besides, the “% Disease reduction over Control” value in experiment [2] was found to be 73.91%.

Consider `Cc1ccc(C(C)C)cc1O` [Carvacrol], for which, in experiment [1], the “Zone of Inhibition (mm)” value was 12.25 mm. In addition, the “% Disease reduction over Control” value in experiment [2] came out at 60.00%.

Take `C=CCc1ccc(OC)c(O)c1` [Chavibetol]: the “Zone of Inhibition (mm)” value in experiment [1] is recorded as 13.25 mm. The “% Disease reduction over Control” value in experiment [2] is 71.30%.

Take `CC(C)=CCCC(C)=CC=O` [Citral]: the “Zone of Inhibition (mm)” value in experiment [1] is 12.50 mm. For the same compound, the “% Disease reduction over Control” value in experiment [2] was determined as 63.48%.

As for `CC(C)c1ccc(C=O)cc1` [Cuminaldehyde], in experiment [1], the “Zone of Inhibition (mm)” value is recorded as 13.75 mm. For the same compound, in experiment [2], the “% Disease reduction over Control” value is recorded as 65.22%.

Turning to `C=C(C)[C@H]1CC=C(C)CC1` [D-limonene], the “Zone of Inhibition (mm)” value in experiment [1] is 11.75 mm. Besides, the “% Disease reduction over Control” value in experiment [2] came to 62.61%.

Regarding `O=c1oc2c(O)c(O)cc3c(=O)oc4c(O)c(O)cc1c4c23` [Ellagic acid], the “Zone of Inhibition (mm)” value in experiment [1] came out at 10.25 mm. Moreover, in experiment [2], the “% Disease reduction over Control” value came out at 58.26%.

As for `CCCCCCCCCC(C)=O` [Embodiment 2-undecanone, 2-undecanone], in experiment [1], the “Zone of Inhibition (mm)” value is listed as 14.57 mm. Further, the “% Disease reduction over Control” value in experiment [2] was determined as 69.57%.

Consider `C=CCc1ccc(O)c(OC)c1` [Eugenol], for which the “Zone of Inhibition (mm)” value in experiment [1] is reported as 11.00 mm. Also, the “% Disease reduction over Control” value in experiment [2] is 61.74%.

For `CCCCC[C@H](O)CC(=O)CCc1ccc(O)c(OC)c1` [Gingerol], the “Zone of Inhibition (mm)” value in experiment [1] came out at 9.75 mm. In addition, the “% Disease reduction over Control” value in experiment [2] stood at 63.48%.

Take `CC1CCC(C(C)C)C(O)C1` (stereo not drawn) [Menthol]: the “Zone of Inhibition (mm)” value in experiment [1] was found to be 12.00 mm. Besides, in experiment [2], the “% Disease reduction over Control” value was found to be 75.65%.

In the case of `C=CCc1ccc(OC)cc1` [Methyl chavicol], the “Zone of Inhibition (mm)” value in experiment [1] was 11.25 mm. In addition, in experiment [2], the “% Disease reduction over Control” value was 64.35%.

As to `CCCCCCCCCCCCCCCC(=O)O` [Palmitic acid], the “Zone of Inhibition (mm)” value in experiment [1] was 11.50 mm. Also, the “% Disease reduction over Control” value in experiment [2] turned out to be 69.57%.

With `O=C(/C=C/C=C/c1ccc2c(c1)OCO2)N1CCCCC1` [Piperine], the “Zone of Inhibition (mm)” value in experiment [1] turned out to be 7.00 mm. In experiment [2], the “% Disease reduction over Control” value is on record as 54.78%.

Consider `Cc1ccc(C(C)C)c(O)c1` [Thymol], for which, in experiment [1], the “Zone of Inhibition (mm)” value was found to be 10.75 mm. For the same compound, the “% Disease reduction over Control” value in experiment [2] was determined as 64.35%.

Turning to `CC1=CC(=O)C(C(C)C)=CC1=O` [Thymoquinone], the “Zone of Inhibition (mm)” value in experiment [1] was 12.75 mm. In addition, in experiment [2], the “% Disease reduction over Control” value stood at 67.83%.

For `Cc1ccc(C(C)C)cc1` [p-Cymene], the “Zone of Inhibition (mm)” value in experiment [1] turned out to be 11.50 mm. Besides, in experiment [2], the “% Disease reduction over Control” value came to 74.78%.

With `C/C=C\c1cc(OC)c(OC)cc1OC` [β-Asarone], the “% Disease reduction over Control” value in experiment [2] is reported as 59.13%.

Consider Berberine, for which the “Zone of Inhibition (mm)” value in experiment [1] turned out to be 10.50 mm. In addition, the “% Disease reduction over Control” value in experiment [2] was 66.96%.

Consider Parthenin, for which the “Zone of Inhibition (mm)” value in experiment [1] amounted to 7.00 mm. Moreover, the “% Disease reduction over Control” value in experiment [2] came out at 55.65%.
